# According to PubChem BioAssay AID686978 (National Center for Advancing Translational Sciences (NCATS), 2013):
# Hit rate of the full screen: of about 420,000 compounds, about 64,000 (15%) were called active. This list was built around the results that the source calls inconclusive (neither active nor inactive); the mix of calls is not that of the screen. Calls follow the shape of the dose curve; as a rule, active = well fitted inhibition curve with a large enough effect; inconclusive = small, poorly fitted or top-dose-only effect; inactive = flat fitted curve, though single readings scatter. No potency is given beside an inconclusive call; the fits are too rough.
# Assay: qHTS for Inhibitors of human tyrosyl-DNA phosphodiesterase 1 (TDP1): qHTS in cells in absence of CPT; also: nearly all actives have a fitted effect of over 55% in size
# Settings: DT40 Tdp1-/- hTDP1 cells, no CPT, ATP luminescence, 48 h; activity change, negative = growth inhibition: at 46.2 µM (top of the series) unless noted
# Procedure, shortened: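 Seeded 400 DT40-hTDP1 cells/well (vehicle DMSO, no 20 nM CPT); pinned compounds; ≥48 hr at 37 °C; CellTiter-Glo luminescence as viability measure.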
# % is scaled to controls: 0 for no effect and ±100 for the full control effect; potency is read from the fitted curve at half-maximal effect; tags tell the direction and shape of the fitted curve.
SMILES,"activity change, negative = growth inhibition",Potency
CC(=O)c1cc2c(cc1NC(=O)CN1CCN(c3ccc(F)cc3)CC1)OCO2,inactive: -28.1%,–
CC(C(=O)NCc1ccccc1)n1c(Cc2cc(F)cc(F)c2)nc2ccccc21 (centres undefined),–,"inconclusive [inhibitor, single point]"
Cc1ccc(C(=O)Nc2nc(-c3cc(Cl)sc3Cl)cs2)cc1,–,"inconclusive [inhibitor, partial curve]"
Cc1ccc(CNc2ccc(S(=O)(=O)N3CCOCC3)cc2[N+](=O)[O-])cc1,–,"inconclusive [inhibitor, single point]"
CC1(C)Oc2ccc3ccc(=O)oc3c2[C@H](O)[C@H]1O,–,"inconclusive [inhibitor, partial curve, poor fit]"
O=C(CSc1nnc(CNC(=O)c2c(F)cccc2Cl)o1)Nc1cccc(F)c1,–,"inconclusive [inhibitor, single point]"
COc1ccc(-c2nc(CN3CCN(C(=O)c4ccco4)CC3)c(C)o2)c(F)c1,–,"inconclusive [inhibitor, single point]"
O=C1c2cc(O)c(O)cc2S(=O)(=O)C1c1ccccc1 (centres undefined),inactive: 5.08%,–
O=C(Cc1cccc(C(F)(F)F)c1)N1CCCC1,inconclusive: -14.7% [inhibitor],–
CC(C)=CCN1CCN(CCC2=C(C)CCCC2(C)C)CC1CCO (centres undefined),–,"inconclusive [inhibitor, single point]"
CCOc1ccc(NS(=O)(=O)c2ccc(NC(=O)N3CCCC3)cc2)cc1,–,"inconclusive [inhibitor, partial curve, poor fit]"
Cc1noc(C)c1C(=O)N1CCC2(CCCN(Cc3ccc(C#N)cc3)C2)CC1,–,"inconclusive [inhibitor, single point]"
O=C(Nc1ccc2nn(-c3ccccc3)nc2c1)c1ccc(-c2cccc(Cl)c2)o1,–,"inconclusive [inhibitor, single point]"
CN(Cc1nc(-c2ccncc2)no1)S(=O)(=O)c1ccc(Br)cc1,–,"inconclusive [inhibitor, single point]"
CCOc1cc(N2CCOCC2)c(OCC)cc1NC(=O)CSc1ncccc1C(=O)O,–,active: 6.51 µM
CC(NC(=O)c1c(O)c2ccccc2n(C)c1=O)c1ccccc1 (centres undefined),–,active: 18.4 µM
COc1ccc(N(C(C)=O)S(=O)(=O)c2cc(OC)ccc2OC)cc1,–,"inconclusive [inhibitor, single point]"
Cc1cc(C)n(CCCNC(=O)c2ccc3c(c2)NC(=O)CS3)n1,inactive: -5.11%,–
COc1cccc(C(=O)NC2CCN(CC(=O)Nc3nccs3)CC2)c1,–,"inconclusive [inhibitor, single point]"
CCOC(=O)/C(C)=C1\NC(C)(C)Cc2ccccc21,–,"inconclusive [inhibitor, single point]"
COc1ccc(NC(C)=O)cc1NC(=O)c1ccc(Cl)cc1,inactive: -6.91%,–
O=C1N(Cc2cccnc2)C[C@@H]2C[C@@H](c3ccccc3C(F)(F)F)N3CCC[C@@]123,–,"inconclusive [inhibitor, partial curve, poor fit]"
CCC(CC)C(=O)c1c[nH]c(C(=O)NCc2ccccc2OC)c1,–,"inconclusive [inhibitor, partial curve]"

SMILES,"activity change, negative = growth inhibition",Potency
COc1cc(NC(=O)c2ccc(-c3cccc([N+](=O)[O-])c3)o2)ccc1NC(=O)C(C)C,–,active: 20.6 µM
COc1ccc(S(=O)(=O)N2CCN(C3Cc4ccccc4C3)CC2)cc1,inconclusive: -33% [inhibitor],–
CC(=O)Oc1cccc(-c2nc3ccccc3c(=O)o2)c1,inconclusive: -30.9% [inhibitor],–
C[C@@H]1CN([C@H](C)CO)C(=O)CCCn2cc(nn2)CO[C@H]1CN(C)C(=O)Nc1cccc(F)c1,inactive: 11.4%,–
CN(C)c1ccc([C@@H]2[C@@H]([N+](=O)[O-])[C@H]3C=Cc4ccccc4N3[C@H]2C(=O)c2ccc(Cl)cc2)cc1,–,active: 7.31 µM
COCCCNC(=O)CCc1c(C)nc2cc(-c3ccc(Cl)cc3)nn2c1C,–,"inconclusive [inhibitor, single point]"
CCCCN(CC)C(=O)Cn1cnc2ccc(S(=O)(=O)N3CCC(C)CC3)cc2c1=O,inactive: -17.9%,–
COc1ccc(C(=O)Nc2ccc(S(=O)(=O)N3CCCCC3C)cc2)c(OC)c1OC (centres undefined),–,active: 16.4 µM
COc1ccc(S(=O)(=O)N2CCN(C(=O)c3cc4c(s3)CCC4)CC2)cc1,–,"inconclusive [inhibitor, single point]"
CN(C)c1ccc(CN(C(=O)COc2ccccc2)C2CCS(=O)(=O)C2)cc1 (centres undefined),inactive: -10.3%,–
CCOc1c(Br)cc(C(=O)OCC(=O)N2CCc3ccccc3C2)cc1OC,–,active: 25.9 µM
CCC/C=C/c1ccc(CN2C(C(C)C)C(=O)N(Cc3cn(CCOCOC)nn3)CCS2(=O)=O)cc1 (centres undefined),–,"inconclusive [inhibitor, single point]"
Cc1cccc(C(=O)Nc2ccccc2C(=O)NCc2ccco2)c1,inactive: -21.9%,–
S=C(NCCCc1cnc[nH]1)NCCCN(Cc1ccc(Cl)cc1)c1ncc(Br)cn1,–,active: 7.94 µM
CC1CC(C)CN(CCCNC(=O)c2ccc(CS(=O)(=O)Cc3cccc(Cl)c3)o2)C1 (centres undefined),inconclusive: -31.9% [inhibitor],–
O=C(CSc1ccccc1)Nc1cc(Cl)ccc1Oc1ccccc1,inactive: -19.9%,–
Cc1ccc(NC(=O)CCOc2ccccc2C)cc1F,–,"inconclusive [inhibitor, single point]"
O=C(c1ccc2c(=O)n(CCc3ccccc3)c(=O)[nH]c2c1)N1CCN(c2ccc(Cl)cc2)CC1,–,active: 18.4 µM
Cn1c(=O)c2c(nc(NCCCO)n2Cc2cccc(C(F)(F)F)c2)n(C)c1=O,–,active: 14.6 µM
CC1(C)CC(=O)C=C(c2ccc(Cl)c(C(F)(F)F)c2)C1,–,"inconclusive [inhibitor, single point]"
CCC(=C/c1sc2ccc3ccccc3c2[n+]1C)/C=C1\Sc2ccc3ccccc3c2N1C,–,active: 0.092 µM
CC(NC(=O)c1ccccc1NS(C)(=O)=O)c1ccccc1 (centres undefined),inactive: 1.12%,–
COc1ccc(S(=O)(=O)N(C)c2ccc(C(=O)NCc3ccco3)cc2)cc1,–,"inconclusive [inhibitor, single point]"

SMILES,"activity change, negative = growth inhibition",Potency
Cc1cc(C)cc(N2C(=O)CN(Cc3sccc3C)C2=S)c1,inactive: -10.2%,–
CC(C)Oc1ccc(/C=N/NC(=O)C(CSCc2ccccc2)NC(=O)c2ccc([N+](=O)[O-])cc2)cc1 (centres undefined),–,"inconclusive [inhibitor, single point]"
Cc1nc2ccc(NC(=O)C3CCN(S(=O)(=O)c4cccs4)CC3)cc2s1,inconclusive: -34.8% [inhibitor],–
O=C(CN1C(=O)/C(=C/c2ccc(F)cc2)SC1=S)NC1C=CS(=O)(=O)C1 (centres undefined),–,"inconclusive [inhibitor, partial curve, poor fit]"
CCOC(=O)Cc1csc(NC(=O)CSc2nc(C)cc(C)n2)n1,–,"inconclusive [inhibitor, single point]"
c1ccc(Cn2ccnc2C2OCCO2)cc1,–,"inconclusive [inhibitor, partial curve, poor fit]"
Cc1ccc(CS(=O)(=O)CC(C)(O)c2ccccc2)cc1 (centres undefined),inactive: 12.7%,–
CCOC(=O)c1nnc2c(Br)c(-c3ccccc3)nn2c1C,–,"inconclusive [inhibitor, single point]"
O=c1c(O)c(-c2ccc(O)cc2)oc2ccccc12,–,"inconclusive [inhibitor, single point]"
O=[N+]([O-])c1cc(S(=O)(=O)Nc2ccccc2)ccc1NCc1cccnc1,–,"inconclusive [inhibitor, partial curve]"
COc1ccc(CN2CCC[C@]3(N[C@H](c4ccc(C)cc4)[C@@H]4C(=O)N(C)C(=O)[C@@H]43)C2=O)cc1,inactive: -29.6%,–
O=[N+]([O-])c1cc(C(F)(F)F)ccc1NCCc1c[nH]c2ccc(O)cc12,–,"inconclusive [inhibitor, single point]"
CCCCn1c(SCC(=O)Nc2ccc(F)cc2)nc2c(sc3ccccc32)c1=O,inactive: -20%,–
Cc1cccc(N2C(=O)CC(Sc3ccccc3C(=O)O)C2=O)c1 (centres undefined),inconclusive: -30.9% [inhibitor],–
Cc1ccc(-c2ccnc3nc(Sc4ncc(C(F)(F)F)cc4Cl)nn23)cc1,inactive: -13.8%,–
CCO[C@@H]1OC(C(=O)NCc2nc3ccccc3[nH]2)=C[C@H](C)[C@H]1CCCO,–,"inconclusive [inhibitor, single point]"
CCN(CC)c1ccc(CNc2nc3ccccc3n2CCN2CCOCC2)cc1,–,active: 18.4 µM
C(=N\Nc1nc2ccccc2[nH]1)/c1ccc2c(c1)OCO2,–,"inconclusive [inhibitor, single point]"
COc1ccc2cc(-c3[nH]ncc3CN3CCCC3c3nonc3C)ccc2c1 (centres undefined),–,active: 23.1 µM
Fc1ccc(Nc2nc(Nc3ccc(F)cc3)nc(N3CCOCC3)n2)cc1,–,"inconclusive [inhibitor, partial curve]"
CN(CC(=O)Nc1c(Cl)cccc1Cl)C(=O)CCNS(=O)(=O)c1ccccc1C(F)(F)F,–,"inconclusive [inhibitor, full curve, poor fit]"
CCc1nc2ccc(C(=O)NCCCN3CCN(c4ccc(F)cc4)CC3)cc2nc1CC,–,"inconclusive [inhibitor, partial curve, poor fit]"
CCOC(=O)NCCc1c(C)nc2c(c(C)nn2C(C)(C)C)c1C,–,"inconclusive [inhibitor, single point]"
